The list shows a part of the results.
T1: UNK ZnF1-3 (human, UniProt Q9C0B0 31-174)
T1 sequence: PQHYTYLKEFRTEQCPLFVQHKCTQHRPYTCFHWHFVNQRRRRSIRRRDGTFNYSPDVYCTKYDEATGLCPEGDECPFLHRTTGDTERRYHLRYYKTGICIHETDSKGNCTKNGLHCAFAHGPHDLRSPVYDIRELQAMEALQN

B1: chr2:168997265:168997266:-_ENSG00000198648_ENST00000355999|hu_mus|FALSE|FALSE (ssRNA)
RNA: GGGAGUUCUACAGUCCGACGAUCUUUAUUCCGUGUAACAUCACCCCCUGUGGCUAAGAAUGCGCUUACUCCAAAAUCUGCUAUUUGUACUGAGCCAUCCUCACCCAGAAGAAUAUUUCCAGCUUUCAAAUCCCUAUGGAUCUGCAACAGAGGAUUGAGCAUCA
B2: chr5:143849297:143849298:-_ENSMUSG00000045078_ENSMUST00000053498|mus_hu|motif|central (ssRNA)
RNA: GGGAGUUCUACAGUCCGACGAUCUACAUUCAGAUCAUAAUAAUUCUUAAAAUGAAUUAUUUCCUCAAUAAACCCAUUUGCGGCAUCUGGAAAUCUUGCUUCCGUUUCUUUCACUAGUAGUUCAACGAGCUCUUGAUCUACCUCCAACAGAGGAUUGAGCAUCA
B3: chr5:76988818:76988819:+_ENSMUSG00000036435_ENSMUST00000113493|mus_hu|FALSE|FALSE (ssRNA)
RNA: GGGAGUUCUACAGUCCGACGAUCUCCAUCCAGGUCCUCUGCUUCAGCCAUAGUUCCAGGCAUACUUUGAUGUUGCUGUAGUUUGAAAAAUUUACUUAUGAAGUCCUGUUCUGCCAGACAUAGGGGCUCCAGUUCACUUAGUACCAACAGAGGAUUGAGCAUCA
B4: chr17:57759754:57759755:+_ENSG00000141367_ENST00000269122|hu_mus|FALSE|FALSE (ssRNA)
RNA: GGGAGUUCUACAGUCCGACGAUCAUCAUAACAACGGUCACCAACUUGCUGAAUAUGAGCAUUAUUUGGCCCAUUGAUGAACUCUUCUAAUUCUGCAAGGCGGUUUGUUUUAGCCAGUGCAAAUAUCAAUUCUGUCUCCACAUACAACAGAGGAUUGAGCAUCA
B5: chr2:217001844:217001845:+_ENSG00000079246_ENST00000392132|hu_mus|FALSE|FALSE (ssRNA)
RNA: GGGAGUUCUACAGUCCGACGAUCACCAACUUGAGGAUUAGAUCUUUUGUCAUAAGCAUAUCGGACGAUGGCGACCAUGUUUAACUCAUCCAAAGCAUGAACGAGAGAGGAAAGGGCAACAGCUGCCGCCUCAUCAUCCUUUGCCAACAGAGGAUUGAGCAUCA
B6: chr2:48026839:48026840:+_ENSG00000116062_ENST00000540021|hu_hu|hu_hu_hu_mus_False|1_68 (ssRNA)
RNA: GGGAGUUCUACAGUCCGACGAUCAUAGUGAGCCACUAGCGUCCUAAAUCUGGAACAGUGGCGGUCAUCUGAAAACUGGCCGAUGAAAAACUUGCCCAGUGAAGUGUCCACAAAGCAAACACCAUACACACGAGUGUGGCCAGACAACAGAGGAUUGAGCAUCA
B7: 64816808_64818420_1693_CDS_ENSG00000184575_ENST00000332707|human|control|control (ssRNA)
RNA: GGGAGUUCUACAGUCCGACGAUCCAGUUGUUUUCUAUAUUCUACAAACAUGGCUUCAUCUUCACCCUCAUUUUCAAAGUUAUAUUCUUCAUCGUAAGUCAAUUUUUUCAUAACGGCCAACAUGAUUGCCUCUACAUUAGCUUUCAACAGAGGAUUGAGCAUCA
B8: chr6:124696998:124696999:-_ENSMUSG00000004263_ENSMUST00000088357|mus_hu|FALSE|FALSE (ssRNA)
RNA: GGGAGUUCUACAGUCCGACGAUCAGCCUGGGAUGGGAGAGAAGGCUGAGUAUACUUGGGGGGCUGAUUGGAGACAGAGAGGCUUGUUGGGGGAGGGAAAGAGUGGGGGUAGCUGGGCAAUGCCUGGGAAGCUGGGAAGGGGGACAACAGAGGAUUGAGCAUCA
B9: chr12:3264740:3264741:-_ENSMUSG00000020671_ENSMUST00000021001|mus_mus|motif|central (ssRNA)
RNA: GGGAGUUCUACAGUCCGACGAUCCCAUAUCUGUAGCUUGAUCUUCUUUCCUUGUAGUUCCACUGUUUUGAUCUUAAAGUCGGUUCCGGUGGUGGAAAUAAAGGUGGUAUUGAAGGCAUCGUCCGAAAAACGAAAAAGGACGCACAACAGAGGAUUGAGCAUCA
B10: chr12:103221452:103221453:+_ENSMUSG00000041781_ENSMUST00000047357|mus_mus|FALSE|FALSE (ssRNA)
RNA: GGGAGUUCUACAGUCCGACGAUCAUACACAGGAAUUGUUGCAUAGAUGGCACAGUUUAGACCCAGCUUCCCCACGGCGAAUGGGAGGGCACCGAGGUGGAGUGGAUCAGGAUGAGACAGGAGCACUGCAUCGAUCUGGUGAACCAACAGAGGAUUGAGCAUCA
B11: chr5:144470944:144470945:+_ENSMUSG00000018001_ENSMUST00000116456|mus_hu|motif|central (ssRNA)
RNA: GGGAGUUCUACAGUCCGACGAUCAUCAUUGAAUAACAGACACUCCAGAAAUCAACAGAUGUACAUUAUUUACAUAUUACGGUAUUUACCGCAAAUAGAAAUAUUUUCUAAGAAAAAAAGUCAAUUUGUGGUUUCUGGUCUACCCAACAGAGGAUUGAGCAUCA
B12: chr8:104439394:104439395:+_ENSG00000164934_ENST00000297579|hu_hu|FALSE|FALSE (ssRNA)
RNA: GGGAGUUCUACAGUCCGACGAUCACUGUCAAAUCCCCAGGUCAUUGAACAUAUAGGAUUAGUUCUUUGUUCAUCCCAAAUGUCUACUUGCUGUCCACAUGUGGCAAAAACAGCUUCUUUCCAGUGAUGAUCAAUCCCAGUAUACAACAGAGGAUUGAGCAUCA
B13: 204309604_204309724_2002_3pUTR_ENSG00000173166_ENST00000319170|human|control|control (ssRNA)
RNA: GGGAGUUCUACAGUCCGACGAUCCCAACUGAGUGCCUCGUUUCCAGGCUUCAGAGAAUACGGAGCUCACAAUGCUCUGGGAACGGACGUGUCCUGCUGGCUGGGUGUCAGAAACUCCGCUAUCAGACUGAUUGGAGUGGUUUGCAACAGAGGAUUGAGCAUCA
B14: 89122016_89122915_1152_CDS_ENSMUSG00000069539_ENSMUST00000174252|mouse|control|control (ssRNA)
RNA: GGGAGUUCUACAGUCCGACGAUCUGGAGUUACAUUUAACAACAGUUUUACGUGUUCACGAACUUCCUCGGGUAUACUGGUCAGUGAACUAGAUCCUAAACGACUCAACUGAUCCAGUUGUCUACUGAAGCUCUUGUAAAUGUCCAACAGAGGAUUGAGCAUCA
B15: chr7:6442117:6442118:+_ENSG00000136238_ENST00000348035|hu_mus|FALSE|FALSE (ssRNA)
RNA: GGGAGUUCUACAGUCCGACGAUCACAAAAACUUGGCAUCAAAUGCGAAGGCUCGCUGAUUUUUGAGCAAAGCGUACAAAGGUUCCAGGCAGGACCGAGAACGAGGGGCUCCGACAUUUACAACAGCAGGCAUUUUCUCUUCCUCAACAGAGGAUUGAGCAUCA
B16: 49027197_49030409_1962_CDS_ENSG00000139687_ENST00000267163|human|control|control (ssRNA)
RNA: GGGAGUUCUACAGUCCGACGAUCUGCAUUUGCAGUAGAAUUUACACGCGUAGUUGAACCUUUUUUCUUUGGAGAUCUUACAGGAGAAAGAUACAUAUCUGCUGCAGUGUGAUUAUUCUGGAGAGGAAGAUUAAGAGGACAAGCCAACAGAGGAUUGAGCAUCA
B17: chr14:52433459:52433460:+_ENSG00000186469_ENST00000556752|hu_hu|FALSE|FALSE (ssRNA)
RNA: GGGAGUUCUACAGUCCGACGAUCAAUGGUUCUCCUCGCUCUCUUCAAAUGCCGUGGACUAGAAAGGUGCCCACUUCACUAAAAACUCUACAUCAAUGUCCCAGGAGCCCGGAGGCUCUUCAGGCCCCUCUCAAAGACUUAAAGCAACAGAGGAUUGAGCAUCA
B18: chr1:109605286:109605287:-_ENSG00000197780_ENST00000461096|hu_mus|hu_hu_hu_mus_True|8_78 (ssRNA)
RNA: GGGAGUUCUACAGUCCGACGAUCAAGUUUCAGAGUAACAUUCAGUAACCUCUUUAACAAUUGUAAUCCUUAUUAUAAGCUAAGCAGAAUAAUAAUUUAAUACCGUAAGUGAACUACACACAAAGCCGUGUAUUCAGAAAUGGUCAACAGAGGAUUGAGCAUCA
B19: chr7:56126341:56126342:+_ENSG00000146731_ENST00000540286|hu_mus|hu_hu_hu_mus_True|1_88 (ssRNA)
RNA: GGGAGUUCUACAGUCCGACGAUCCAUGUUUCUCCUCUUGGCUCUGCGCAGAGCAACGAUCCCUUCUUUCGCAAGGGCAUCUAAGGAAAAGGGGUCAAUCCCCUUUUGAUUAAUAACGACAAAUCCUUUAUCUGAGUCGCCACACAACAGAGGAUUGAGCAUCA
B20: 55052064_55059170_449_3pUTR_ENSG00000022277_ENST00000023939|human|control|control (ssRNA)
RNA: GGGAGUUCUACAGUCCGACGAUCGAACCUGUGUCGGCCGUUCAUCUCCAGGCCCACAACGGGGCAGAUGAAACGCGCCCGCUGGAGGUCAUCGUGCUUGUCACCUUUAGUGUUUCCUUUAUCCCCUUCCCAGGCAGGAUUAUCCAACAGAGGAUUGAGCAUCA
B21: chr10:1038518:1038519:+_ENSG00000107937_ENST00000545048|hu_hu|motif|central (ssRNA)
RNA: GGGAGUUCUACAGUCCGACGAUCAAGUCUAUCAUGGUAAUUCUGUUGAGUAAAUUUGACUUUUCUCAUGUAAAAAUGUCGGAUGCGAUGUAUUUGGUAAUGUUUAUGAAUAACGGUUGGAGUCUUUCGUUGAGUCUUCGACAACAACAGAGGAUUGAGCAUCA
B22: 122513083_122513203_418_5pUTR_ENSMUSG00000034602_ENSMUST00000073792|mouse|control|control (ssRNA)
RNA: GGGAGUUCUACAGUCCGACGAUCCGGCCCGCAGCCAGCCGGCGGCUCCUCAGUCUUCCUUAGCCGGGGCCCAGGGCUCGGCGGGCGGGCGGGCGGGCGGGCGCACGGCCGGAGCCGGGCUGCGUCUCCCGAGGCGUGCCCGAGCAACAGAGGAUUGAGCAUCA

Target: T1, UNK ZnF1-3
Assay: nsRBNS (natural sequence RNA bind-n-seq); RBNS binding buffer (assumed for nsRBNS): 25 mM Tris pH 7.5, 150 mM KCl, 3 mM MgCl2, 0.01% Triton X-100, 500 ug/ml BSA, 20 U/ml SUPERase-In, 4 C; UNK is unkempt and MSI1 is Musashi-1; names of the RNAs are library labels; protein concentration not given here; high values mean tight binding

| Binder | binding signal |
| --- | --- |
| B1 | 0.945 enrichment R |
| B2 | 0.696 enrichment R |
| B3 | 1.24 enrichment R |
| B4 | 0.871 enrichment R |
| B5 | 1.94 enrichment R |
| B6 | 1.06 enrichment R |
| B7 | 0.852 enrichment R |
| B8 | 2.86 enrichment R |
| B9 | 1.13 enrichment R |
| B10 | 1.23 enrichment R |
| B11 | 1.11 enrichment R |
| B12 | 0.804 enrichment R |
| B13 | 1.12 enrichment R |
| B14 | 0.378 enrichment R |
| B15 | 1.37 enrichment R |
| B16 | 1.78 enrichment R |
| B17 | 1.14 enrichment R |
| B18 | 0.639 enrichment R |
| B19 | 1.07 enrichment R |
| B20 | 1.01 enrichment R |
| B21 | 0.973 enrichment R |
| B22 | 0 enrichment R |

Source: paper PMC12136788
